Our source for the hematological profile values is patent publication US5792635A, “Method of inhibiting the sodium/proton exchanger NHE3 and method of inhibiting growth by administering squalamine” (priority 1995, dated 1998).

The subject of this series is L1210 lymphoblastic leukemia cells. As to the kind of experiment: Mouse model of leukemia (L1210), survival and hematological profile. The following applies: L1210-inoculated mice.

On to `CC(C)[C@@H](CC[C@@H](C)[C@H]1CC[C@H]2[C@@H]3[C@H](O)C[C@H]4C[C@@H](NCCCNCCCCNCCCN)CC[C@]4(C)[C@H]3CC[C@]12C)OS(=O)(=O)O` [Compound 1436], for which the hematological profile entry is listed as “near normal hematocrit, with evidence of a robust granulocyte count”.
